In all, about 45,000 compounds went through this assay and about 200 (0.44%) were called active. About 7% were inconclusive and are not listed. Calls follow the shape of the dose curve; as a rule, active = well fitted activation curve with a large enough effect; inconclusive = small, poorly fitted or top-dose-only effect; inactive = no such curve, though single readings can be large or run the other way. The list shows a part of the results.

Experimental findings from PubChem BioAssay AID1347073 (National Center for Advancing Translational Sciences (NCATS), 2019) are described below.

The experiment is described as follows: qHTS of TDP-43 Inhibitors: NCGC Sytravon Library Screen. Also: 0% is about no effect; nearly all actives have a fitted effect of over 55% in size. Conditions: yeast TDP-43 toxicity rescue, BacTiter-Glo growth, 24 h; series mostly up to 46.1 µM; growth rescue (activation): at the top concentration. Put shortly:
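TDP-43-expressing yeast, pregrown in raffinose, seeded at OD600 0.02 in galactose medium with compound for 24 hr at 30 deg C. Growth read by BacTiter-Glo luminescence, so rescue of toxicity appears as activation.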
Background: Quantitative high-throughput screening tests each substance at several concentrations.
On to `Cc1c(NC(=O)/C(C#N)=C/c2c(Oc3ccccc3)nc3ccccn3c2=O)c(=O)n(-c2ccccc2)n1C`, for which the “growth rescue (activation)” value was inactive: 8.35%.

Take `O=[N+]([O-])c1ccc(N2CCOCC2)cc1SCc1ccco1`: the “growth rescue (activation)” value was inactive: 11.8%.

For the molecule `Cc1ccc(CNC(=O)CN(C(=O)C2(C)CC(=O)N=C3C=CC=CN32)c2cccc(C)c2C)cc1` (stereo not given), the “growth rescue (activation)” value was inactive: 5.25%.

`COCOc1cccc(CN2CCC2(C)C(=O)Nc2cc(OC)ccc2OC)c1` (stereo not given): the “growth rescue (activation)” value was inactive: 4.81%.

In the case of `COc1cc(/C=N/NC(=O)c2nonc2N)cc(OC)c1OC`, the “growth rescue (activation)” value was inactive: 5.77%.

`COc1ccc(Cc2nnnn2CC(=O)O)cc1`: the “growth rescue (activation)” value is inactive: 6.13%.

With `O=[N+]([O-])c1cc(C(F)(F)F)cc([N+](=O)[O-])c1NN=C1CCCCC1`, the “growth rescue (activation)” value is inactive: 19%.

As to `Cc1cc(N2CCCC2)ccc1/C=C1/C(=O)N(C)C(=S)N1C`, the “growth rescue (activation)” value is inactive: 5.71%.

For `O=S1(=O)CCC(NC(=S)SCc2ccccc2Br)C1` (stereo not given), the “growth rescue (activation)” value is inactive: 22.4%.

For `O=C(CNC(=O)c1ccccc1Cl)c1ccccc1`, the “growth rescue (activation)” value is inactive: 10.2%.

For `CCOC(=O)N1CCC(NC(=O)c2ccc3c(c2)N(Cc2ccc(F)cc2)C(=O)c2ccccc2S3(=O)=O)CC1`, the “growth rescue (activation)” value was inactive: 0.625%.

Take `Cc1cc(C(=O)NNC(=O)c2ccc(F)cc2)c(C)s1`: the “growth rescue (activation)” value was inactive: 20.3%.

Turning to `COC(=O)Cc1[nH]n(-c2nc3ccccc3s2)c(=O)c1C(C)=O`, the “growth rescue (activation)” value was inactive: -1.01%.

On to `CC(=O)c1ccc(NC(=O)CCNS(=O)(=O)c2ccccc2F)cc1`, for which the “growth rescue (activation)” value was inactive: 3.88%.

Take `O=C(COc1cccc2ccccc12)N/N=C/c1ccncc1`: the “growth rescue (activation)” value is inactive: 9.71%.

With `CCN(CC)c1ccc(N2C(=O)C3CCCCC3C2=O)cc1[N+](=O)[O-]` (stereo not given), the “growth rescue (activation)” value is inactive: 19.5%.

Regarding `CCOc1ccc(OCC)c(S(=O)(=O)NCCOC23CC4CC(CC(C4)C2)C3)c1`, the “growth rescue (activation)” value is inactive: 2.74%.

Regarding `COc1ccc(/C=N/Nc2cc(C)nc(NS(=O)(=O)c3ccc(C)cc3)n2)cc1`, the “growth rescue (activation)” value was inactive: 3.34%.

Turning to `COc1cccc(CNC(=O)C2CCN(c3nnc(-n4c(C)ccc4C)s3)CC2)c1`, the “growth rescue (activation)” value is inactive: 6.5%.

For the molecule `CCC(C)N(C(=O)CSc1nc(-c2ccccc2)cs1)C1CCS(=O)(=O)C1` (stereo not given), the “growth rescue (activation)” value is inactive: -12.3%.

`Cc1cc(/C=N\O)c(C)n1-c1ccncc1`: the “growth rescue (activation)” value is inactive: 6.49%.

Consider `CCCn1c(SCC(=O)N2CCOCC2)nnc1-c1ccncc1`, for which the “growth rescue (activation)” value is inactive: -1.53%.

In the case of `CNc1cncc(-c2cccc(NS(C)(=O)=O)c2)n1`, the “growth rescue (activation)” value was inactive: 1.07%.

With `CCCc1cc(=O)oc2cc(OCC(=O)N3CCOCC3)c(Cl)cc12`, the “growth rescue (activation)” value was inactive: 6.89%.

For `Clc1ccc(N=C2SCC3CCCCN23)cc1` (stereo not given), the “growth rescue (activation)” value is inactive: -3.92%.

Consider `Cn1c(-c2ccc(F)cc2)cnc1SCC(=O)N1CCCc2ccccc21`, for which the “growth rescue (activation)” value is inactive: 18.4%.

On to `CSc1ccc(CN(C)C(=O)c2cc3ccccc3o2)cc1`, for which the “growth rescue (activation)” value was inactive: 19.4%.

In the case of `COc1cccc(N(C(=O)c2nc3nccc(C)n3n2)c2nc3ccccc3s2)c1`, the “growth rescue (activation)” value is inactive: 1.07%.

`COC(=O)C1=C(N)N(c2ccccc2C(F)(F)F)C2=C(C(=O)CCC2)C1c1ccc2c(c1)OCO2` (stereo not given): the “growth rescue (activation)” value was inactive: 16.2%.

Consider `Cc1ccc(NC(=O)c2cccs2)cc1S(=O)(=O)N(C)C`, for which the “growth rescue (activation)” value was inactive: 7.01%.

Consider `CC1CCCC(NC(=O)COC(=O)[C@@H](NC(=O)c2ccco2)C(C)C)C1C` (stereo not given in full), for which the “growth rescue (activation)” value was inactive: 3.39%.

As for `COc1ccc(NC(=O)/C=C/c2cccc(Br)c2)cn1`, the “growth rescue (activation)” value was inactive: 0.79%.

With `Cc1ccc(/C=N/N2CCN(Cc3ccc(C)cc3)CC2)cc1`, the “growth rescue (activation)” value is inactive: 8.99%.

As to `CC(C)C(=O)NC(c1ccccc1)c1cc([N+](=O)[O-])c2cccnc2c1O` (stereo not given), the “growth rescue (activation)” value was inactive: 6.21%.

For the molecule `COc1ccc(N(C(=O)c2cccnc2)S(=O)(=O)c2cccs2)cc1`, the “growth rescue (activation)” value is inactive: 4.9%.

For the molecule `COC(=O)c1ccc(OC(=O)c2ccc(OC)c(OC)c2)c(OC)c1`, the “growth rescue (activation)” value is inactive: 13.9%.

In the case of `Cc1ccc(CN(C(=O)c2csnn2)C(C(=O)NC2CCCC2)c2ccccn2)cc1` (stereo not given), the “growth rescue (activation)” value was inactive: 4.16%.

Regarding `Nc1cc(=O)[nH]c(SCC(=O)c2ccc(O)cc2O)n1`, the “growth rescue (activation)” value is inactive: 9.61%.

On to `CCn1nccc1C(=O)Nc1cccc(C)c1C`, for which the “growth rescue (activation)” value was inactive: 16.2%.

Take `C/[N+]([O-])=C\C1C(=O)CC(C)(C)CC1=O`: the “growth rescue (activation)” value was inactive: 1.79%.

With `COC(=O)c1[nH]c2cc(C)ccc2c1NC(=O)CN1CCOCC1`, the “growth rescue (activation)” value was inactive: 7.92%.

Regarding `COC(=O)c1cc2oc3ccccc3c2n1Cc1cc(C)ccc1C`, the “growth rescue (activation)” value is inactive: 4.72%.

Take `CCCCN(Cc1ccccc1)C(=O)CCN1C(=O)C2C3C=CC(C3)C2C1=O` (stereo not given): the “growth rescue (activation)” value was inactive: 2.25%.

For `Cc1nnsc1C(=O)N/N=C/c1ccc2ccccc2c1O`, the “growth rescue (activation)” value was inactive: 27.2%.

Turning to `O=c1ccn(-c2cccc(C(F)(F)F)c2)nc1-c1ccn(-c2ccccc2)n1`, the “growth rescue (activation)” value was inactive: -8.62%.

Consider `Nc1cc(C(=O)OCC(=O)N2CCOCC2)ccc1Cl`, for which the “growth rescue (activation)” value was inactive: 2.45%.

`O=C(/C=C/c1ccc2ccccc2n1)N1CCN(c2ccccc2)CC1`: the “growth rescue (activation)” value is inactive: 37.7%.

In the case of `CS(=O)(=O)c1ccccc1C(=O)Nc1cc2c(cc1C(=O)O)OCCCO2`, the “growth rescue (activation)” value is inactive: 14.6%.

For `COCCNC(=O)CSc1ccccc1C(=O)NCC1CCCCC1`, the “growth rescue (activation)” value was inactive: -3.26%.

On to `O=C1Cc2ccccc2C(c2ccc(Cl)cc2)N1` (stereo not given), for which the “growth rescue (activation)” value was inactive: 16%.

Take `O=C(Nc1cccc2ncccc12)c1ccc([N+](=O)[O-])o1`: the “growth rescue (activation)” value was inactive: 16.7%.

With `COc1ccccc1NC(=O)CCN1C(=O)c2ccccc2S1(=O)=O`, the “growth rescue (activation)” value was inactive: 14.6%.

Turning to `COc1ccc(NC(=O)C(c2ccccc2)N2CCN(c3ccccn3)CC2)cc1Cl` (stereo not given), the “growth rescue (activation)” value is inactive: -3.5%.

On to `CC1=NNC(=O)C1CCC(=O)N/N=C/c1ccc(Cl)cc1` (stereo not given), for which the “growth rescue (activation)” value is inactive: 8.42%.

On to `O=C(Nc1ccc(C(F)(F)F)cc1)N1CCC(N2CCCCC2)CC1`, for which the “growth rescue (activation)” value is inactive: 0.731%.
